Measured values from PubChem BioAssay (Tox21).
Where “and” joins values, the source holds several entries; their conditions need not be identical. Equal entries are not always repeated. The shares of active, inactive and inconclusive entries below differ from those in the screen. For part of these data: Potencies of inconclusive entries are doubtful fits and often do not repeat. Some compounds were tested as several samples or in several runs, with calls that do not always agree. Calls of active or inactive are those of the source. Unless noted, calls follow the shape of the dose curve; as a rule, active = well fitted curve in the direction sought with a large enough effect in the repeat runs; inconclusive = weak or mixed curves; inactive = no such curve, though single readings can be large; an effect the other way counts as inactive or inconclusive.

Columns and labels:
[1] = molecular target: Glucocorticoid receptor (Homo sapiens) (UniProt P04150); assay: qHTS assay to identify small molecule agonists of the glucocorticoid receptor (GR) signaling pathway (AID 720691; active = well fitted activation curve with a large enough effect in the signal ratio in the repeat runs, not every such curve was filed as active; inconclusive = weak or mixed curves, or effect the other way; inactive = no such curve, though single readings can be large or run the other way; the % refers to the signal ratio; also: potency is read from the fitted curve at half-maximal effect; as to activation: % is scaled to controls: 0 for no effect and ±100 for the full control effect); conditions: GR-bla HeLa, beta-lactamase reporter ratio, 18 h; activation: at 62.4 µM (top of the series) unless noted
Sequence of UniProt P04150 (P04150 whole entry, looked up): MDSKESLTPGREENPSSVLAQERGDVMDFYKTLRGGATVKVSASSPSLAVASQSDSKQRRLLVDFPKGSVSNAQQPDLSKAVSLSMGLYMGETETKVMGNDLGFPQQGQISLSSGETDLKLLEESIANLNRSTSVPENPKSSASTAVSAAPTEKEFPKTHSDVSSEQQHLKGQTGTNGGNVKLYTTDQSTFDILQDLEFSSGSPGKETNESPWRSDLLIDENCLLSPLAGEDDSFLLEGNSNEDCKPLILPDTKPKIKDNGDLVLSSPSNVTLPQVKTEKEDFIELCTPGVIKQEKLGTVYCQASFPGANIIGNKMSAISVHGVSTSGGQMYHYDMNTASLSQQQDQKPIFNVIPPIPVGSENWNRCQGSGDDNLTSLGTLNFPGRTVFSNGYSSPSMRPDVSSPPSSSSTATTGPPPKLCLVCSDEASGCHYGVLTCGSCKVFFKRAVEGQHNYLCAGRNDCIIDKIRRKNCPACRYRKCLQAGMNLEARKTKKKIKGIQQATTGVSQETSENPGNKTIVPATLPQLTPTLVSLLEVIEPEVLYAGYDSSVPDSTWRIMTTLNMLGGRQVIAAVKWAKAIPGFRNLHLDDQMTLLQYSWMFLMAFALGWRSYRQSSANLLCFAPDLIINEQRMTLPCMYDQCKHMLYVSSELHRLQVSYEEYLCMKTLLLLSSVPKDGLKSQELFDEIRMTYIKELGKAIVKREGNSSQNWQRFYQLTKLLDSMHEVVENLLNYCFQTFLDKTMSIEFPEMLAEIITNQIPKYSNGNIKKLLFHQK
Procedure, shortened: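 Reporter read-out: fluorescence intensity following 2 h room-temperature LiveBLAzer B/G FRET substrate loading. Prior step: GR-bla HeLa cells held 4 h, then treated 18 h at 37 C.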

[2] = molecular target: Nuclear receptor subfamily 1 group I member 2 (Homo sapiens) (UniProt O75469); assay: Human pregnane X receptor (PXR) activation by small molecules, qHTS assay (AID 1346985); also: nearly all actives have a fitted effect of over 40% in size; also: potency is read from the fitted curve at half-maximal effect
Procedure, shortened: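 DPX-2 cells (HepG2 co-transfected with a PXR response element and a CYP3A4-promoter luciferase construct) were seeded at 2,000 per well, rested 5 hr at 37C, then exposed to DMSO-dissolved compounds for 24 hr. Activation was read as luciferase luminescence.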

[3] = molecular target: Aryl hydrocarbon receptor (Homo sapiens) (UniProt P35869); assay: qHTS assay to identify small molecule that activate the aryl hydrocarbon receptor (AhR) signaling pathway (AID 743085); also: nearly all actives have a fitted effect of over 15% in size; also: potency is read from the fitted curve at half-maximal effect;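 as to activation: HG2L7.5c1 human HepG2 liver cells with stably integrated DRE-driven firefly reporter; % is scaled to controls: 0 for no effect and ±100 for the full control effect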
Sequence of UniProt P35869 (P35869 whole entry, looked up): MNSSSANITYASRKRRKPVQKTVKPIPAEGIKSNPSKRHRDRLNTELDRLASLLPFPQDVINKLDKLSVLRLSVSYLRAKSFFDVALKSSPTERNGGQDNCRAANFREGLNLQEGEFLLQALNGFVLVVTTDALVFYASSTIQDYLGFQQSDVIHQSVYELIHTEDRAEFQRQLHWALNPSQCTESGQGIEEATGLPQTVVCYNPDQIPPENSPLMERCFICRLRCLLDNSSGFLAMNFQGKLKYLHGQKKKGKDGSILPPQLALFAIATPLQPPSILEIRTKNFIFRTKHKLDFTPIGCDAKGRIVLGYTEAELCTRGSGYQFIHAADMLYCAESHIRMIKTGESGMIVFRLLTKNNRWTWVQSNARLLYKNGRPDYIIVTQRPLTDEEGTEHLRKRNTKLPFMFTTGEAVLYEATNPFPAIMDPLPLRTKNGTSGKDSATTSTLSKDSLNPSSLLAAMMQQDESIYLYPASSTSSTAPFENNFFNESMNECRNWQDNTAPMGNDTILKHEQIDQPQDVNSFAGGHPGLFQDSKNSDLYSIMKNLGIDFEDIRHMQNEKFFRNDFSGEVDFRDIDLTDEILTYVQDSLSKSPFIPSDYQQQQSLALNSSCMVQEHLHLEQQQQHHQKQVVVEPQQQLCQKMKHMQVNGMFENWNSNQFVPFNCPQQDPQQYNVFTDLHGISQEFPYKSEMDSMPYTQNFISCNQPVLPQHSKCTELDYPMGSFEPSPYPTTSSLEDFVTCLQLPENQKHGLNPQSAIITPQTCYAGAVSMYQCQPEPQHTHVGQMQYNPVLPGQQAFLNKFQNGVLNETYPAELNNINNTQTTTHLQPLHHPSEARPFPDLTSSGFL
Procedure, shortened: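 Luminescence read-out: ONE-Glo reagent, 30 min at room temperature, in HG2L7.5c1 HepG2 reporter cells treated 24 h at 37C. Viability was measured beforehand by CellTiter-Fluor fluorescence after 30 min at 37C.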

[4] = qHTS assay for small molecule agonists of the antioxidant response element (ARE) signaling pathway (AID 743202; active = well fitted activation curve with a large enough effect in the signal ratio in the repeat runs, not every such curve was filed as active; inconclusive = weak or mixed curves, or effect the other way; inactive = no such curve, though single readings can be large or run the other way; the % refers to the signal ratio; also: % is scaled to controls: 0 for no effect and ±100 for the full control effect); conditions: HepG2 ARE-bla reporter, beta-lactamase FRET, 16 h; activation: at 73.3 µM (top of the series) unless noted
Procedure, shortened: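 Compounds delivered in DMSO to ARE-bla HepG2 cells (2,000 cells/well, pre-incubated 5 h) and left 16 h at 37 C. LiveBLAzer B/G FRET substrate then added for 2 h at RT before fluorescence reading.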

[5] = molecular target: Cytochrome P450 2C9 (Homo sapiens) (UniProt P11712); assay: Cytochrome P450 Family 2 Subfamily C Member 9 (CYP2C9) small molecule antagonists: luciferase reporter qHTS assay (AID 1671198); also: potency is read from the fitted curve at half-maximal effect; nearly all actives have a fitted effect of over 50% in size
Sequence of UniProt P11712 (P11712 whole entry, looked up): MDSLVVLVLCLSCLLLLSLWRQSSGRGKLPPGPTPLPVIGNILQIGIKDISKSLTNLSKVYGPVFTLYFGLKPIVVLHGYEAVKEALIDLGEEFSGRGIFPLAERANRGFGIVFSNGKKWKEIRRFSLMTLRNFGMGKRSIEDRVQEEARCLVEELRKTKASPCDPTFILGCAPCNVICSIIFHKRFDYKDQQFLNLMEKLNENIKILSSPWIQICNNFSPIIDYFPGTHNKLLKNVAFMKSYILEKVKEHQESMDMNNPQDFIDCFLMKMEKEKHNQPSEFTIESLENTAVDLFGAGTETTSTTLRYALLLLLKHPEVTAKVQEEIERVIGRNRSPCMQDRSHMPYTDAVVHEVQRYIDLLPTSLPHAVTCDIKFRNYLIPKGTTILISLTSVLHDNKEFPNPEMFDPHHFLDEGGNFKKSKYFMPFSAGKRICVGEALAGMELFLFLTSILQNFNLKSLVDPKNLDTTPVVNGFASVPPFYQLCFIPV
Procedure, shortened: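 CYP2C9 activity was measured with a P450-Glo proluciferin substrate. Enzyme–substrate mix was held with compound for 10 min at room temperature, then NADPH regeneration solution was added for 1 h at 37C. Luciferin product was read as luminescence.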

[6] = qHTS assay for small molecules that induce genotoxicity in human embryonic kidney cells expressing luciferase-tagged ATAD5 - cell viability (AID 651634; calls by dose curve; also: potency is read from the fitted curve at half-maximal effect; nearly all actives have a fitted effect of over 25% in size)
Procedure, shortened: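 Seeding of 2,000 HEK293T ATAD5-luciferase cells per well preceded pin-tool compound transfer. Plates sat 15.5 hr at 37C under 5% CO2, then fluorescence was read after 30 min with CellTiter-Fluor.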

[7] = molecular target: Estrogen receptor (Homo sapiens) (UniProt P03372); assay: qHTS assay to identify small molecule agonists of the estrogen receptor alpha (ER-alpha) signaling pathway (AID 743075; calls by dose curve;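 also: HEK293 GripTite cells with ER-alpha and UAS-driven beta-lactamase reporter; potency is read from the fitted curve at half-maximal effect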); conditions: HEK293 ER-alpha-UAS-bla, beta-lactamase FRET ratio, 18 h; activation: at 70.1 µM (top of the series)
Sequence of UniProt P03372 (P03372 whole entry, looked up): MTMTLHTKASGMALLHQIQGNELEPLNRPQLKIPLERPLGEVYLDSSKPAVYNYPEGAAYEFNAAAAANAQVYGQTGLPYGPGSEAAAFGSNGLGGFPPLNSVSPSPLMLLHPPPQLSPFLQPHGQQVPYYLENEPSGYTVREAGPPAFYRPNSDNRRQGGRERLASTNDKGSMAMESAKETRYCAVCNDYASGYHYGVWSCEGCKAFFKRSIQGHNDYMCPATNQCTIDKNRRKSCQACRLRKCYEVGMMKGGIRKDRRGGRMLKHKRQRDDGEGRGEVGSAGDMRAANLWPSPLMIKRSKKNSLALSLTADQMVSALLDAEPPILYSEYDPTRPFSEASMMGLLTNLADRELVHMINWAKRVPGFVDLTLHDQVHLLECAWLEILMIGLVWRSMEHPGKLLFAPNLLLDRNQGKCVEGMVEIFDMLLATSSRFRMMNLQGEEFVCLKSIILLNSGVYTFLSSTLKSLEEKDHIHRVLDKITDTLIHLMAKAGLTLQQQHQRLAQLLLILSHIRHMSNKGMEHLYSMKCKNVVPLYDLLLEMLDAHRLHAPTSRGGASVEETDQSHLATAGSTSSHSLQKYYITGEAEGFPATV

[8] = molecular target: Androgen receptor (Homo sapiens) (UniProt P10275); assay: qHTS assay to identify small molecule agonists of the androgen receptor (AR) signaling pathway (AID 743036; active = well fitted activation curve with a large enough effect in the signal ratio in the repeat runs, with a control signal flat, not every such curve was filed as active; inconclusive = weak or mixed curves, or effect the other way; inactive = no such curve, though single readings can be large or run the other way; the % refers to the signal ratio; also: potency is read from the fitted curve at half-maximal effect; as to activation: % is scaled to controls: 0 for no effect and ±100 for the full control effect); conditions: HEK293 AR-UAS-bla GripTite, beta-lactamase FRET ratio, 16 h; activation: at 62.4 µM (top of the series) unless noted
Sequence of UniProt P10275 (P10275 whole entry, looked up): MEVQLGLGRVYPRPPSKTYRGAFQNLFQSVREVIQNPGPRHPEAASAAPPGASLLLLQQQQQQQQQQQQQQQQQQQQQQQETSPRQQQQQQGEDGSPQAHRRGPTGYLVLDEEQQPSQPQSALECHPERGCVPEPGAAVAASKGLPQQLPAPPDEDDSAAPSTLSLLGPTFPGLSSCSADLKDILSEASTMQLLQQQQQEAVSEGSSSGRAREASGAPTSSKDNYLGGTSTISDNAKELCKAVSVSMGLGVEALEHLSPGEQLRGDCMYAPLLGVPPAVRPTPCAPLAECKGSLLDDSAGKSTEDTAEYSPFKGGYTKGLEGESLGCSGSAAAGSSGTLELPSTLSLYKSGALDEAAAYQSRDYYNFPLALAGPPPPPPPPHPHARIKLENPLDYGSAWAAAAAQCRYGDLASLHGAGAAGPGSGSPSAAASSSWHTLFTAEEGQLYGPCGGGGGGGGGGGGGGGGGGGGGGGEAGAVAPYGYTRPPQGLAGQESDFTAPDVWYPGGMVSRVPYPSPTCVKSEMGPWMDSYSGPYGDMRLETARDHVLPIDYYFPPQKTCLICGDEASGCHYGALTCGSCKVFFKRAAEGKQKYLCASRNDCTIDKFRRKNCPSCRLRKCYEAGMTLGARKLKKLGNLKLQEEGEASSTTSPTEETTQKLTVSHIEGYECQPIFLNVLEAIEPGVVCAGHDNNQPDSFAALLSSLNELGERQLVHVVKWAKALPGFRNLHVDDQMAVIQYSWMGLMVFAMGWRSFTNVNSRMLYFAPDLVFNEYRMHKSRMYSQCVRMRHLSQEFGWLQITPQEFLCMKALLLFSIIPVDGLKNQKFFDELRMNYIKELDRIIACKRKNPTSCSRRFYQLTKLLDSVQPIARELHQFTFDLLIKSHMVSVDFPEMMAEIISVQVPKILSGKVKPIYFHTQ
Procedure, shortened: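 AR-bla HEK293 cells, 2,000/well; 4 h preincubation 37C/5% CO2; compound (DMSO) 16 h at 37C; LiveBLAzer B/G FRET substrate 2 h RT; fluorescence intensity read-out.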

[9] = qHTS assay to identify small molecule antagonists of the vitamin D receptor (VDR) signaling pathway - cell viability counter screen (AID 743225); conditions: VDR-bla HEK293T viability, CellTiter-Glo luminescence, 16 h; viability change, negative = cytotoxic: at 61 µM (top of the series) unless noted; also: % is scaled to controls: 0 for no effect and ±100 for the full control effect; nearly all actives have a fitted effect of over 50% in size
Procedure, shortened: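 Viability counter screen run in the same wells as the beta-lactamase reporter assay: HEK 293T VDR-UAS-bla cells, 16 h compound exposure at 37C with 3 nM (final) 1-alpha,25-dihydroxyvitamin D3. CellTiter-Glo luminescence, 30 min, room temperature.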

[10] = molecular target: Androgen receptor (Homo sapiens) (UniProt P10275); assay: qHTS assay to identify small molecule antagonists of the androgen receptor (AR) signaling pathway (AID 743035; active = well fitted inhibition curve with a large enough effect in the signal ratio in the repeat runs, not every such curve was filed as active; inconclusive = weak or mixed curves, or effect the other way; inactive = no such curve, though single readings can be large or run the other way; the % refers to the signal ratio; also: potency is read from the fitted curve at half-maximal effect); conditions: HEK293 AR-UAS-bla, R1881-stimulated, beta-lactamase FRET, 16 h; activity change, negative = inhibition: at 58.5 µM (top of the series) unless noted
Procedure, shortened: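 Using qHTS, AR-UAS-bla GripTite HEK293 cells received compound, then R1881, and were cultured 16 h at 37C/5% CO2 before a 2 h room-temperature LiveBLAzer B/G FRET substrate step and fluorescence measurement.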

[11] = qHTS assay to identify small molecule antagonists of the glucocorticoid receptor (GR) signaling pathway - cell viability counter screen (AID 720693); conditions: GR-bla HeLa viability, CellTiter-Glo luminescence, 18 h, with 5 nM dexamethasone present; viability change, negative = cytotoxic: at 58.5 µM (top of the series); also: potency is read from the fitted curve at half-maximal effect; nearly all actives have a fitted effect of over 55% in size
Tags tell the direction and shape of the fitted curve or compound fluorescence and quenching.

Question: What does the source list for `COc1ccc2c(c1)N(C[C@H](C)CN(C)C)c1ccccc1S2`?
Answer: Potency [1]: inactive; Potency [2]: inconclusive: 12.6 µM [activator, single point]

Question: With `CC[C@H]1OC(=O)[C@H](C)C(=O)[C@H](C)[C@@H](O[C@@H]2O[C@H](C)C[C@H](N(C)C)[C@H]2O)[C@](C)(OC)C[C@@H](C)C(=O)[C@H](C)[C@H]2N(CCCCn3cnc(-c4cccnc4)c3)C(=O)O[C@]12C` as the compound, how does the Potency [3] read?
Answer: inactive and inconclusive: 29.8 µM [activator]

Question: What about the Potency [2] of the same compound?
Answer: active: 0.794 µM

Question: What does the source list for `CC1=CC=C(C(C)C)CC1`?
Answer: Potency [4]: inactive; Potency [5]: active: 63.3 µM

Question: What does the source list for `CCCCC(=O)OCC(=O)[C@]1(O)Cc2c(O)c3c(c(O)c2[C@@H](O[C@H]2C[C@H](NC(=O)C(F)(F)F)[C@H](O)[C@H](C)O2)C1)C(=O)c1c(OC)cccc1C3=O`?
Answer: Potency [6]: inconclusive: 21.1 µM [falling, partial curve]; Potency [1]: active: 7.56 µM; Potency [7]: inconclusive: 2.13 µM [falling, partial curve]

Question: With `CCOc1ccc(C(=O)OCCN(CC)CC)cc1` as the compound, how does the Potency [8] read?
Answer: inactive

Question: And the Potency [4]?
Answer: inactive

Question: What about the Potency [9] of the same compound?
Answer: inactive

Question: For `CCCCCCCCCCCCCCCCCCCCCC(=O)Nc1ccn([C@@H]2O[C@H](CO)[C@@H](O)[C@@H]2O)c(=O)n1`, which activity change, negative = inhibition [10] is on record?
Answer: inconclusive: 44.7%

Question: Which Potency [2] does the source give for `CC/C=C\C/C=C\C/C=C\C/C=C\C/C=C\CCCC(=O)O` here?
Answer: inactive

Question: With `C=C1C(=C/C=C2\CCC[C@]3(C)[C@@H]([C@H](C)CCCC(C)(C)O)CC[C@@H]23)C[C@@H](O)C[C@@H]1O` as the compound, how does the Potency [6] read?
Answer: inconclusive: 13.3 µM [falling, partial curve, poor fit]

Question: What about the Potency [1] of the same compound?
Answer: inconclusive: 23.9 µM [cytotoxic]

Question: What about the Potency [11] of the same compound?
Answer: inconclusive: 26.8 µM [cytotoxic, single point]

Question: What about the Potency [3] of the same compound?
Answer: active: 10.6 µM

Question: And the Potency [2]?
Answer: inconclusive: 22.4 µM [activator, single point]

Question: With `CC(=O)[C@@]1(O)CC[C@H]2[C@@H]3C=C(Cl)C4=CC(=O)CC[C@]4(C)[C@H]3CC[C@@]21C` as the compound, how does the Potency [10] read?
Answer: active: 0.674 µM

Question: What about the Potency [8] of the same compound?
Answer: inconclusive: 19 µM [fluorescent, partial curve, poor fit]
